Several values for one entry are separate records, joined by “and”; a condition that tells them apart may be missing. Equal values may be shown once. Some of the results follow. Many values rest on one well or one pass, so single values are uncertain.

The assay concerns SARS-CoV-2 nsp3 SARS-unique domain core (SUD-core, nsp3 residues 413-676). Briefly: dissociation rate constant koff (BLI); higher = faster dissociation. The following applies: 100 µM; 25 °C. The method, then: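 Primary BLI (Octet RED96e) screen of MedChemExpress Nucleotide Compound and Kinase Inhibitor libraries (1770 compounds) against biotinylated SARS-CoV-2 SUD-core on SSA biosensors. Each compound was tested once at 100 uM in PBS pH 7.4, 1% DMSO; 150 s association, 180 s dissociation, 25 C. Kd and koff are apparent values from single-concentration 1:1 fits. Only fits with full R^2 >= 0.9 are kept; fits at the software floor (<1e-12 M, <1e-7 /s) and placeholder values are excluded.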
Turning to `CN(C)c1ncnc2c1ncn2[C@@H]1O[C@H](CO)[C@@H](N)[C@H]1O`, the “dissociation rate constant koff” value worked out at 0.0133 s⁻¹. As to `CNC(=O)c1ccc(-c2cnc3cnc(C(=O)N(C)c4ccc(Cl)cc4)cn23)cc1`, the “dissociation rate constant koff” value was determined as 0.523 s⁻¹. In the case of `C[N+](C)(C)CCOP(=O)(O)OP(=O)([O-])OC[C@H]1O[C@@H](n2ccc(N)nc2=O)[C@H](O)[C@@H]1O` it was 0.0201 s⁻¹; in that of `COCc1c(-c2ccc(NC(=O)Nc3cc(C(F)(F)F)ccc3F)c(F)c2)c2c(N)ncnn2c1CN1CCOCC1`, 0.147 s⁻¹; in that of `CCCS(=O)(=O)Nc1ccc(F)c(-n2cc(-c3cncnc3)c3nc(N(C)C4CCN(CC)CC4)ccc32)c1F`, 0.474 s⁻¹. As to `Cc1cc(N2CCOCC2)cc2[nH]c(-c3c(NC[C@@H](O)c4cccc(Cl)c4)cc[nH]c3=O)nc12`, the “dissociation rate constant koff” value is 0.0993 s⁻¹. Consider `CNc1nc(-c2ccc3c(N)n[nH]c3c2)cc(N2C[C@@H](C(=O)NC3CCCCC3)CC[C@H]2C)n1`, for which the “dissociation rate constant koff” value came out at 0.281 s⁻¹. As for `CCCCC[C@H](O)CC(=O)CCc1ccc(O)c(OC)c1`, the “dissociation rate constant koff” value worked out at 0.0151 s⁻¹. For the molecule `CN[C@@H](C)[C@H]1[C@H](O)C[C@@]2(C)[C@@H]3CC[C@H]4C(C)(C)[C@@H](NC)CC[C@@]45C[C@@]35CC[C@]12C`, the “dissociation rate constant koff” value was found to be 0.0819 s⁻¹. Turning to `COc1cc(Nc2ncc(F)c(Nc3ccc4c(n3)N(COP(=O)(O)O)C(=O)C(C)(C)O4)n2)cc(OC)c1OC`, the “dissociation rate constant koff” value is 0.619 s⁻¹ and 1.74 s⁻¹. Under `Cc1cc(Nc2cc(N3CCN(C)CC3)nc(Sc3ccc(NC(=O)C4CC4)cc3)n2)n[nH]1` stands 0.87 s⁻¹.

On to `Cc1cn([C@H]2C[C@@H](N=[N+]=[N-])[C@@H](CO)O2)c(=O)[nH]c1=O`, for which the “dissociation rate constant koff” value was found to be 0.0257 s⁻¹. `Nc1n[nH]c2nnc(-c3c(-c4ccccc4)nn4ccccc34)cc12`: the “dissociation rate constant koff” value came out at 0.0122 s⁻¹. In the case of `O=c1ccn([C@H]2C[C@H](O)[C@@H](CO)O2)c(=O)[nH]1` it was 0.00957 s⁻¹. `Cc1cn([C@H]2C[C@H](F)[C@@H](CO)O2)c(=O)[nH]c1=O`: the “dissociation rate constant koff” value is 0.0265 s⁻¹.

`O=C(O)c1nn(Cc2ccc(Cl)cc2Cl)c2ccccc12`: the “dissociation rate constant koff” value is 0.259 s⁻¹. For `CC(C)NC(=O)C1CCC(n2c(NC(=O)c3ccc(F)cc3)nc3ccc(CN4CCC(C(C)(C)O)CC4)cc32)CC1` (stereo not given), the “dissociation rate constant koff” value was determined as 0.0161 s⁻¹. In the case of `COc1cc2ncnc(Nc3ccc(O)c(Br)c3)c2cc1OC` it was 0.172 s⁻¹. Under `CC(C)(C)c1cnc(CSc2cnc(NC(=O)C3CCNCC3)s2)o1` stands 13.1 s⁻¹; under `Cc1ccc(NC(=O)c2ccnc(C(F)(F)F)c2)cc1-c1cc(OCCO)nc(N2CCOCC2)c1`, 0.233 s⁻¹. As for `CCCCCCCC/C=C/CCCCCCCC(=O)OC[C@H]1O[C@@H](n2ccc(N)nc2=O)[C@@H](O)[C@@H]1O`, the “dissociation rate constant koff” value was found to be 0.0128 s⁻¹.

`C=CC(=O)Nc1ccc(CN2C(=O)N(c3cc(OC)cc(OC)c3)Cc3cnc(Nc4ccc(N5CCN(C)CC5)cc4)nc32)cc1`: the “dissociation rate constant koff” value was 2.18 s⁻¹.

In the case of `COc1ccc(Cl)c(Nc2ncnc3cc(OCC4CCN(C)CC4)c(OC)cc23)c1`, the “dissociation rate constant koff” value came to 0.279 s⁻¹. Turning to `O=C1Nc2ccc(I)cc2/C1=C/c1cc(Br)c(O)c(Br)c1`, the “dissociation rate constant koff” value came out at 0.0638 s⁻¹. Under `O=c1[nH]c(=O)n([C@H]2C[C@H](O)[C@@H](CO)O2)cc1Br` stands 0.0129 s⁻¹; under `COc1cc(N2CCOCC2)ccc1Nc1ncc(Cl)c(Nc2ccccc2NS(C)(=O)=O)n1`, 1.3 s⁻¹. Consider `O=c1[nH]cc([C@@H]2O[C@H](CO)[C@@H](O)[C@H]2O)c(=O)[nH]1`, for which the “dissociation rate constant koff” value worked out at 0.0134 s⁻¹. With `Cc1nc2ccc(-n3ncc(C(=O)c4cc5ccccc5[nH]4)c3N)cc2[nH]1`, the “dissociation rate constant koff” value was 0.0601 s⁻¹. With `C[C@H]1CC[C@]2(NC1)O[C@H]1C[C@H]3[C@@H]4CC[C@H]5C[C@@H](O)CC[C@]5(C)[C@H]4CC[C@]3(C)[C@H]1[C@@H]2C`, the “dissociation rate constant koff” value was 0.223 s⁻¹. For `Cc1nc2c(NCc3cccc(S(C)(=O)=O)c3)nccn2c1-c1ccc(O)c(F)c1`, the “dissociation rate constant koff” value is 1.14 s⁻¹. As for `N#Cc1ccc2ncnc(NCCc3ccccc3)c2c1`, the “dissociation rate constant koff” value stood at 0.604 s⁻¹. In the case of `O=C(Nc1ccc2[nH]nc(-c3ccncc3)c2c1)[C@@H]1CCN(CC(=O)N2CCN(c3ccc(-c4ncccn4)cc3)CC2)C1` it was 0.599 s⁻¹; in that of `NCCNC(=O)Cc1ccc(NC(=O)Cc2ccc(Nc3ncnc4c3ncn4[C@@H]3O[C@H](CO)[C@@H](O)[C@H]3O)cc2)cc1`, 0.0139 s⁻¹; in that of `O=c1[nH]ccc2nc(-c3ccc(CN4CCC(c5nc(-c6ccccn6)n[nH]5)CC4)cc3)c(-c3ccccc3)cc12`, 0.0103 s⁻¹. With `CNc1nc(N)nc2c1ncn2[C@@H]1O[C@H](CO[P@@](=O)(N[C@@H](C)C(=O)OC(C)C)Oc2ccccc2)[C@@H](O)[C@@]1(C)F`, the “dissociation rate constant koff” value was found to be 0.0583 s⁻¹. As for `C[C@@H]1CC[C@@]2(OC1)O[C@H]1C[C@H]3[C@@H]4CC=C5C[C@@H](O[C@@H]6O[C@H](CO)[C@@H](O[C@@H]7O[C@@H](C)[C@H](O[C@@H]8O[C@@H](C)[C@H](O)[C@@H](O)[C@H]8O)[C@@H](O)[C@H]7O)[C@H](O)[C@H]6O[C@@H]6O[C@@H](C)[C@H](O)[C@@H](O)[C@H]6O)CC[C@]5(C)[C@H]4CC[C@]3(C)[C@@]1(O)[C@@H]2C`, the “dissociation rate constant koff” value was 1.7 s⁻¹.

On to `CC(=O)Nc1ccn([C@@H]2O[C@H](CO)[C@@H](O)[C@H]2O)c(=O)n1`, for which the “dissociation rate constant koff” value was found to be 0.0322 s⁻¹. On to `O=C(NCCN1CCOCC1)c1cc2c(Oc3ccc(NC(=O)C4(C(=O)Nc5ccc(F)cc5)CC4)cc3)ccnc2[nH]1`, for which the “dissociation rate constant koff” value worked out at 0.486 s⁻¹. Take `O=C(NCCN1CCOCC1)Nc1nc2ccc(Sc3nnc4ccc(-c5ccc(F)cc5)nn34)cc2s1`: the “dissociation rate constant koff” value was determined as 0.103 s⁻¹.

For `OCCN(CCO)c1ccc(C(c2ccc(Cl)cc2)c2ccc(N(CCO)CCO)cc2)cc1`, the “dissociation rate constant koff” value came to 0.136 s⁻¹.

Source of the values: the supplement of paper PMC10326071.
